# Source: the supplement of paper PMC8728848
# The list shows a part of the results.
# What was measured:
# Assay in all cases: glycan array binding signal (z-score within array); higher = stronger binding
# Conditions in all cases: glycan notation: IUPAC condensed, linker removed
# [1] = target: Gal(b1-4)GlcNAc(b1-6)Gal(b1-4)GlcNAc
# How it was run: (§1)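 Glycan array binding is given as a within-array Z-score, which can be read as non-binding when negative. The arrays, 3228 of them, came from the Consortium for Functional Glycomics database and were retained only where the protein sequence was available. Z-scores were averaged across arrays of the same protein sequence at different concentrations or buffers and across linkers.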
# [2] = target: Gal(b1-4)GlcNAc(b1-6)GalNAc
# How it was run: as §1
# [3] = target: Gal(b1-4)GlcNAc(b1-6)[Gal(b1-3)]GalNAc
# How it was run: as §1
# [4] = target: Gal(b1-4)GlcNAc(b1-6)[Gal(b1-4)GlcNAc(b1-3)]GalNAc
# How it was run: as §1
# Gal(b1-4)GlcNAc6P = target: Gal(b1-4)GlcNAc6P
# How it was run: as §1
# Gal(b1-6)Gal = target: Gal(b1-6)Gal
# How it was run: as §1
# Gal3S(b1-3)GalNAc = target: Gal3S(b1-3)GalNAc
# How it was run: as §1
# Gal3S(b1-3)GlcNAc = target: Gal3S(b1-3)GlcNAc
# How it was run: as §1
# [5] = target: Gal3S(b1-3)[Fuc(a1-4)]GlcNAc
# How it was run: as §1
# Gal3S(b1-4)Glc = target: Gal3S(b1-4)Glc
# How it was run: as §1
# Gal3S(b1-4)Glc6S = target: Gal3S(b1-4)Glc6S
# How it was run: as §1
# Gal3S(b1-4)GlcNAc = target: Gal3S(b1-4)GlcNAc
# How it was run: as §1
# [6] = target: Gal3S(b1-4)[Fuc(a1-3)]Glc6S
# How it was run: as §1
# [7] = target: Gal3S(b1-4)[Fuc(a1-3)]GlcNAc
# How it was run: as §1
# [8] = target: Gal3S(b1-4)[Fuc(a1-3)]GlcNAc6S
# How it was run: as §1
# Gal3S4S(b1-4)GlcNAc = target: Gal3S4S(b1-4)GlcNAc
# How it was run: as §1
# Gal3S6S(b1-4)GlcNAc = target: Gal3S6S(b1-4)GlcNAc
# How it was run: as §1
# Gal3S6S(b1-4)GlcNAc6S = target: Gal3S6S(b1-4)GlcNAc6S
# How it was run: as §1
# Gal4S(b1-4)GlcNAc = target: Gal4S(b1-4)GlcNAc
# How it was run: as §1
# Gal4S6S(b1-4)GlcNAc = target: Gal4S6S(b1-4)GlcNAc
# How it was run: as §1
# Gal6P(b1-4)GlcNAc = target: Gal6P(b1-4)GlcNAc
# How it was run: as §1
# Gal6S(b1-3)GlcNAc = target: Gal6S(b1-3)GlcNAc
# How it was run: as §1
# Gal6S(b1-3)GlcNAc6S = target: Gal6S(b1-3)GlcNAc6S
# How it was run: as §1
# Gal6S(b1-4)Glc = target: Gal6S(b1-4)Glc
# How it was run: as §1
# Gal6S(b1-4)Glc6S = target: Gal6S(b1-4)Glc6S
# How it was run: as §1
# Gal6S(b1-4)GlcNAc = target: Gal6S(b1-4)GlcNAc
# How it was run: as §1
# Gal6S(b1-4)GlcNAc6S = target: Gal6S(b1-4)GlcNAc6S
# How it was run: as §1
# GalNAc(a1-3)Gal = target: GalNAc(a1-3)Gal
# How it was run: as §1
# GalNAc(a1-3)GalNAc = target: GalNAc(a1-3)GalNAc
# How it was run: as §1
# [9] = target: GalNAc(a1-3)GalNAc(b1-3)Gal(a1-4)Gal(b1-4)Glc
# How it was run: as §1
# [10] = target: GalNAc(a1-3)GalNAc(b1-3)Gal(a1-4)Gal(b1-4)GlcNAc
# How it was run: as §1
# GalNAc(b1-3)Gal = target: GalNAc(b1-3)Gal
# How it was run: as §1
# [11] = target: GalNAc(b1-3)Gal(a1-4)Gal(b1-4)GlcNAc
# How it was run: as §1
# [12] = target: GalNAc(b1-3)Gal(a1-4)Gal(b1-4)GlcNAc(b1-3)Gal(b1-4)Glc
# How it was run: as §1
# [13] = target: GalNAc(b1-3)Gal(a1-6)Gal(b1-4)Glc
# How it was run: as §1
# GalNAc(b1-3)GalNAc = target: GalNAc(b1-3)GalNAc
# How it was run: as §1
# GalNAc(b1-3)GlcNAc = target: GalNAc(b1-3)GlcNAc
# How it was run: as §1
# GalNAc(b1-4)Gal(b1-4)Glc = target: GalNAc(b1-4)Gal(b1-4)Glc
# How it was run: as §1
binder,measurement,setting,value
PkBDPgamma (Plasmodium knowlesi) (protein) SAINQIFLQNNVMDKCNDKRKRGERDWDCPTEKDVCIPDRRYQLCMMEITNLVDTDTHFHSDIIFRKSYSRRRLIYDVGGRGDLLLKKYNNVYSEDLCKDIKWSLQDFGDIIMGTDMEGIGYSLVVQNNLRSIFGTGTSAELDRKKWWNDHKKDIWKAMILSVKEKNRYSAWNCKEDVQIKVEPQIYRWIREWGRDYMSEFREQRRKLNEKCEDKLYYSTMLICTLPPCNNACKSYDEWITGKKKQWDVLSTKFSSVKKAQKIETENIARAYDILKQELNGFNEVTFENEINKRDKLYNYFCVCIVQEARKNTQENVKNVGSGVESKAPSSNPINEAVKSSSGEGKVQEDSAHRSVNEGEGKSSTNEADPGSQPGAAASGGGSGGGTGGGVDLAPQMLRELQETNAALQDVRELLRQQVKEITFLKNTVMECDACGGPLDRNLPPLAPLGPTGGWSHPQFEK,glycan array binding signal (z-score),[1],0.108
same,glycan array binding signal (z-score),[2],0.08
same,glycan array binding signal (z-score),[3],-0.298
same,glycan array binding signal (z-score),[4],0.249
same,glycan array binding signal (z-score),Gal(b1-4)GlcNAc6P,0.178
same,glycan array binding signal (z-score),Gal(b1-6)Gal,-0.046
same,glycan array binding signal (z-score),Gal3S(b1-3)GalNAc,0.208
same,glycan array binding signal (z-score),Gal3S(b1-3)GlcNAc,0.068
same,glycan array binding signal (z-score),[5],0.689
same,glycan array binding signal (z-score),Gal3S(b1-4)Glc,0.325
same,glycan array binding signal (z-score),Gal3S(b1-4)Glc6S,-0.138
same,glycan array binding signal (z-score),Gal3S(b1-4)GlcNAc,0.452
same,glycan array binding signal (z-score),[6],0.272
same,glycan array binding signal (z-score),[7],-0.081
same,glycan array binding signal (z-score),[8],-0.049
same,glycan array binding signal (z-score),Gal3S4S(b1-4)GlcNAc,0.437
same,glycan array binding signal (z-score),Gal3S6S(b1-4)GlcNAc,-0.155
same,glycan array binding signal (z-score),Gal3S6S(b1-4)GlcNAc6S,-0.041
same,glycan array binding signal (z-score),Gal4S(b1-4)GlcNAc,-0.583
same,glycan array binding signal (z-score),Gal4S6S(b1-4)GlcNAc,-0.03
same,glycan array binding signal (z-score),Gal6P(b1-4)GlcNAc,-0.45
same,glycan array binding signal (z-score),Gal6S(b1-3)GlcNAc,0.415
same,glycan array binding signal (z-score),Gal6S(b1-3)GlcNAc6S,0.413
same,glycan array binding signal (z-score),Gal6S(b1-4)Glc,-0.205
same,glycan array binding signal (z-score),Gal6S(b1-4)Glc6S,-0.135
same,glycan array binding signal (z-score),Gal6S(b1-4)GlcNAc,0.756
same,glycan array binding signal (z-score),Gal6S(b1-4)GlcNAc6S,-0.398
same,glycan array binding signal (z-score),GalNAc(a1-3)Gal,-0.429
same,glycan array binding signal (z-score),GalNAc(a1-3)GalNAc,0.011
same,glycan array binding signal (z-score),[9],-0.045
same,glycan array binding signal (z-score),[10],-0.303
same,glycan array binding signal (z-score),GalNAc(b1-3)Gal,-0.379
same,glycan array binding signal (z-score),[11],0.65
same,glycan array binding signal (z-score),[12],0.064
same,glycan array binding signal (z-score),[13],-0.242
same,glycan array binding signal (z-score),GalNAc(b1-3)GalNAc,0.271
same,glycan array binding signal (z-score),GalNAc(b1-3)GlcNAc,-0.039
same,glycan array binding signal (z-score),GalNAc(b1-4)Gal(b1-4)Glc,-0.243
